# Experimental data taken from the supplement of paper PMC8728848.
# The other results are listed elsewhere or left out.
# Legend:
# Test in all cases: glycan array binding signal (z-score within array); higher = stronger binding
# Settings in all cases: glycan notation: IUPAC condensed, linker removed
# [1] = molecular target: GlcNAc(b1-4)GlcNAc(b1-4)GlcNAc(b1-4)GlcNAc(b1-4)GlcNAc
# Outline: (§1)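 From the Consortium for Functional Glycomics database, 3228 arrays were curated, keeping only those whose protein sequence was available. Binding is given as a within-array Z-score averaged across arrays sharing a protein sequence and across linkers. Negative Z-scores can be read as non-binding.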
# [2] = molecular target: GlcNAc(b1-4)GlcNAc(b1-4)GlcNAc(b1-4)GlcNAc(b1-4)GlcNAc(b1-4)GlcNAc
# Outline: as §1
# [3] = molecular target: GlcNAc(b1-4)[GlcNAc(b1-6)]GalNAc
# Outline: as §1
# [4] = molecular target: GlcNAc(b1-6)Gal(b1-4)GlcNAc
# Outline: as §1
# GlcNAc(b1-6)GalNAc = molecular target: GlcNAc(b1-6)GalNAc
# Outline: as §1
# [5] = molecular target: GlcNAc6S(b1-3)Gal(b1-4)GlcNAc
# Outline: as §1
# Kdn(a2-3)Gal(b1-3)GalNAc = molecular target: Kdn(a2-3)Gal(b1-3)GalNAc
# Outline: as §1
# Kdn(a2-3)Gal(b1-3)GlcNAc = molecular target: Kdn(a2-3)Gal(b1-3)GlcNAc
# Outline: as §1
# Kdn(a2-3)Gal(b1-4)Glc = molecular target: Kdn(a2-3)Gal(b1-4)Glc
# Outline: as §1
# Kdn(a2-3)Gal(b1-4)GlcNAc = molecular target: Kdn(a2-3)Gal(b1-4)GlcNAc
# Outline: as §1
# [6] = molecular target: Kdn(a2-3)Gal(b1-4)[Fuc(a1-3)]GlcNAc
# Outline: as §1
# Kdn(a2-6)Gal(b1-4)GlcNAc = molecular target: Kdn(a2-6)Gal(b1-4)GlcNAc
# Outline: as §1
# [7] = molecular target: Man(a1-2)Man(a1-2)Man(a1-3)Man
# Outline: as §1
# [8] = molecular target: Man(a1-2)Man(a1-2)Man(a1-6)[Man(a1-3)]Man
# Outline: as §1
# Man(a1-2)Man(a1-3)Man = molecular target: Man(a1-2)Man(a1-3)Man
# Outline: as §1
# [9] = molecular target: Man(a1-2)Man(a1-3)[Man(a1-2)Man(a1-6)]Man
# Outline: as §1
# [10] = molecular target: Man(a1-2)Man(a1-3)[Man(a1-2)Man(a1-6)]Man(a1-6)[Man(a1-2)Man(a1-2)Man(a1-3)]Man
# Outline: as §1
# [11] = molecular target: Man(a1-2)Man(a1-3)[Man(a1-2)Man(a1-6)]Man(a1-6)[Man(a1-2)Man(a1-2)Man(a1-3)]Man(b1-4)GlcNAc(b1-4)GlcNAc
# Outline: as §1
# [12] = molecular target: Man(a1-2)Man(a1-3)[Man(a1-6)]Man(a1-6)[Man(a1-2)Man(a1-3)]Man(b1-4)GlcNAc(b1-4)GlcNAc
# Outline: as §1
# [13] = molecular target: Man(a1-2)Man(a1-6)[Man(a1-3)]Man(a1-6)[Man(a1-2)Man(a1-2)Man(a1-3)]Man
# Outline: as §1
# [14] = molecular target: Man(a1-2)Man(a1-6)[Man(a1-3)]Man(a1-6)[Man(a1-2)Man(a1-2)Man(a1-3)]Man(b1-4)GlcNAc(b1-4)GlcNAc
# Outline: as §1
# Man(a1-3)[Man(a1-6)]Man = molecular target: Man(a1-3)[Man(a1-6)]Man
# Outline: as §1
# [15] = molecular target: Man(a1-3)[Man(a1-6)]Man(a1-6)[Man(a1-2)Man(a1-3)]Man(b1-4)GlcNAc(b1-4)GlcNAc
# Outline: as §1
# [16] = molecular target: Man(a1-3)[Man(a1-6)]Man(a1-6)[Man(a1-3)]Man
# Outline: as §1
# [17] = molecular target: Man(a1-3)[Man(a1-6)]Man(a1-6)[Man(a1-3)]Man(b1-4)GlcNAc(b1-4)GlcNAc
# Outline: as §1
# [18] = molecular target: Man(a1-3)[Man(a1-6)]Man(b1-4)GlcNAc(b1-4)GlcNAc
# Outline: as §1
# [19] = molecular target: Man(a1-3)[Man(a1-6)]Man(b1-4)GlcNAc(b1-4)[Fuc(a1-6)]GlcNAc
# Outline: as §1
# Man(a1-6)Man = molecular target: Man(a1-6)Man
# Outline: as §1
# Man(b1-4)GlcNAc = molecular target: Man(b1-4)GlcNAc
# Outline: as §1
# MurNAc(b1-4)GlcNAc = molecular target: MurNAc(b1-4)GlcNAc
# Outline: as §1
# Neu5Ac(a2-3)Gal = molecular target: Neu5Ac(a2-3)Gal
# Outline: as §1
# [20] = molecular target: Neu5Ac(a2-3)Gal(b1-3)GalNAc
# Outline: as §1
# [21] = molecular target: Neu5Ac(a2-3)Gal(b1-3)GalNAc(b1-3)Gal(a1-4)Gal(b1-4)Glc
# Outline: as §1
# [22] = molecular target: Neu5Ac(a2-3)Gal(b1-3)GalNAc(b1-4)[Neu5Ac(a2-3)]Gal(b1-4)Glc
# Outline: as §1
# [23] = molecular target: Neu5Ac(a2-3)Gal(b1-3)GalNAc(b1-4)[Neu5Ac(a2-8)Neu5Ac(a2-3)]Gal(b1-4)Glc
# Outline: as §1
# [24] = molecular target: Neu5Ac(a2-3)Gal(b1-3)GalNAc6S
# Outline: as §1
# [25] = molecular target: Neu5Ac(a2-3)Gal(b1-3)GlcNAc
# Outline: as §1
# [26] = molecular target: Neu5Ac(a2-3)Gal(b1-3)GlcNAc(b1-2)Man
# Outline: as §1
# [27] = molecular target: Neu5Ac(a2-3)Gal(b1-3)GlcNAc(b1-2)Man(a1-3)[GlcNAc(b1-4)][Neu5Ac(a2-3)Gal(b1-3)GlcNAc(b1-2)Man(a1-6)]Man(b1-4)GlcNAc(b1-4)GlcNAc
# Outline: as §1
# [28] = molecular target: Neu5Ac(a2-3)Gal(b1-3)GlcNAc(b1-2)Man(a1-3)[Neu5Ac(a2-3)Gal(b1-3)GlcNAc(b1-2)Man(a1-6)]Man(b1-4)GlcNAc(b1-4)GlcNAc
# Outline: as §1
# [29] = molecular target: Neu5Ac(a2-3)Gal(b1-3)GlcNAc(b1-3)Gal(b1-3)GlcNAc
# Outline: as §1
# [30] = molecular target: Neu5Ac(a2-3)Gal(b1-3)GlcNAc(b1-3)Gal(b1-4)GlcNAc
# Outline: as §1
# [31] = molecular target: Neu5Ac(a2-3)Gal(b1-3)GlcNAc(b1-3)GalNAc
# Outline: as §1
# [32] = molecular target: Neu5Ac(a2-3)Gal(b1-3)GlcNAc(b1-4)Gal(b1-4)Glc
# Outline: as §1
# [33] = molecular target: Neu5Ac(a2-3)Gal(b1-3)GlcNAc(b1-6)GalNAc
# Outline: as §1
binder,measurement,setting,value
"CFEM-PPm (Pichia pastoris), F2QPV1 (protein) AVATPPACLLACAAEVVKESSDCDALNNIQCICENEGSAIHACLESTCPDGLSSTALQSFEDVCE",glycan array binding signal (z-score),[1],-0.176
same,glycan array binding signal (z-score),[2],-0.155
same,glycan array binding signal (z-score),[3],0.016
same,glycan array binding signal (z-score),[4],0.015
same,glycan array binding signal (z-score),GlcNAc(b1-6)GalNAc,-0.258
same,glycan array binding signal (z-score),[5],-0.076
same,glycan array binding signal (z-score),Kdn(a2-3)Gal(b1-3)GalNAc,-0.084
same,glycan array binding signal (z-score),Kdn(a2-3)Gal(b1-3)GlcNAc,-0.285
same,glycan array binding signal (z-score),Kdn(a2-3)Gal(b1-4)Glc,-0.334
same,glycan array binding signal (z-score),Kdn(a2-3)Gal(b1-4)GlcNAc,-0.212
same,glycan array binding signal (z-score),[6],0.034
same,glycan array binding signal (z-score),Kdn(a2-6)Gal(b1-4)GlcNAc,-0.26
same,glycan array binding signal (z-score),[7],0.539
same,glycan array binding signal (z-score),[8],-0.242
same,glycan array binding signal (z-score),Man(a1-2)Man(a1-3)Man,-0.359
same,glycan array binding signal (z-score),[9],-0.318
same,glycan array binding signal (z-score),[10],-0.291
same,glycan array binding signal (z-score),[11],-0.361
same,glycan array binding signal (z-score),[12],-0.316
same,glycan array binding signal (z-score),[13],-0.278
same,glycan array binding signal (z-score),[14],-0.15
same,glycan array binding signal (z-score),Man(a1-3)[Man(a1-6)]Man,-0.217
same,glycan array binding signal (z-score),[15],-0.074
same,glycan array binding signal (z-score),[16],-0.289
same,glycan array binding signal (z-score),[17],-0.222
same,glycan array binding signal (z-score),[18],-0.119
same,glycan array binding signal (z-score),[19],-0.233
same,glycan array binding signal (z-score),Man(a1-6)Man,-0.261
same,glycan array binding signal (z-score),Man(b1-4)GlcNAc,-0.358
same,glycan array binding signal (z-score),MurNAc(b1-4)GlcNAc,0.011
same,glycan array binding signal (z-score),Neu5Ac(a2-3)Gal,-0.309
same,glycan array binding signal (z-score),[20],-0.281
same,glycan array binding signal (z-score),[21],-0.183
same,glycan array binding signal (z-score),[22],-0.217
same,glycan array binding signal (z-score),[23],-0.037
same,glycan array binding signal (z-score),[24],-0.238
same,glycan array binding signal (z-score),[25],-0.09
same,glycan array binding signal (z-score),[26],-0.257
same,glycan array binding signal (z-score),[27],-0.254
same,glycan array binding signal (z-score),[28],-0.225
same,glycan array binding signal (z-score),[29],-0.432
same,glycan array binding signal (z-score),[30],-0.256
same,glycan array binding signal (z-score),[31],-0.09
same,glycan array binding signal (z-score),[32],-0.395
same,glycan array binding signal (z-score),[33],-0.321
